# Results are given in words; binding and its absence hold for the method and conditions named. Some entries that bind do so weakly or less than the wild type.
# T1: Mtr4 (yeast two-hybrid plasmid pAV745) (S. cerevisiae) (UniProt P47047)
# T1 sequence: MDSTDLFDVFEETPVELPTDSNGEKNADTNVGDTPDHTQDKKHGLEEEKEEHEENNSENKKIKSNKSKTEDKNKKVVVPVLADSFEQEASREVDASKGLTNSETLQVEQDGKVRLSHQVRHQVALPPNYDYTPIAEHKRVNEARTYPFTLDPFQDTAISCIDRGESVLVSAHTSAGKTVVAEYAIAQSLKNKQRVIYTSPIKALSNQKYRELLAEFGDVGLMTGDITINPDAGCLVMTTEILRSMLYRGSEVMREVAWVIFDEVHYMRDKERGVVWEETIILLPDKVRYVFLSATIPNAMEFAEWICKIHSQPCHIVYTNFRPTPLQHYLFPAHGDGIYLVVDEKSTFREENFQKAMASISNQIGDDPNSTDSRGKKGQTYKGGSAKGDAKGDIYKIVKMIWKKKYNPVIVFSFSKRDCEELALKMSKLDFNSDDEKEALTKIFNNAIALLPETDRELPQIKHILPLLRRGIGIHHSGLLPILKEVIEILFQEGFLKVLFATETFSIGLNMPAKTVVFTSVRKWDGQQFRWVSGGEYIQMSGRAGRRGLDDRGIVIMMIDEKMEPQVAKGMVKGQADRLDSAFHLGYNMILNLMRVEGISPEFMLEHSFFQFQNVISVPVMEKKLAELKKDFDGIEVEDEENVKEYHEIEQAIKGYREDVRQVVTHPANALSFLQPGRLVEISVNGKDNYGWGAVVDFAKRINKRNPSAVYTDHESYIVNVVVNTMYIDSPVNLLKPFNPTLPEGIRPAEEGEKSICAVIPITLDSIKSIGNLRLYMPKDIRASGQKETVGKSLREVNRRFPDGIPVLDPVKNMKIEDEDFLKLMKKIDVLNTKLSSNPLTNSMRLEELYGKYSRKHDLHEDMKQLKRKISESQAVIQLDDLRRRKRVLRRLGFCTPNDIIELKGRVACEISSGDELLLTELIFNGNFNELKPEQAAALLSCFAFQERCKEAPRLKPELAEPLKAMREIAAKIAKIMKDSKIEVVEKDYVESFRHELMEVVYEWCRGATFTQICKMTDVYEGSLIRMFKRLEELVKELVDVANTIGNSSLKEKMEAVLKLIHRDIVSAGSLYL
# Biological target: T1, Mtr4 (yeast two-hybrid plasmid pAV745) (S. cerevisiae)
# Test: two-hybrid; MTR4 TRP1 plasmids in PJ69-4α crossed to TRF5 LEU2 (pOAD) plasmids in PJ69-4a; diploids serially diluted and spotted on SC-TRP-LEU, SC-ADE and SC-HIS (with 10 mM 3-AT)
row,Binder,binding
1,"Trf5 68-199 (yeast two-hybrid plasmid pAV759) (domain or fragment, UniProt P48561 68-199) MENDKSDVDIPVIEEVTSSEDEQRAESSKRNNSLEDNQDFIAFSDSSEDETEQIKEDDDERSSFLLTDEHEVSKLTSQQSLNTESACNVEYPWIRNHCHSKQRRIADWLTSEIKDFVHYISPSKNEIKCRNR",binds
2,"Trf5 53-124 (yeast two-hybrid plasmid pAV768) (domain or fragment, UniProt P48561 53-124) AIDVEDDDTFGNLVLMENDKSDVDIPVIEEVTSSEDEQRAESSKRNNSLEDNQDFIAFSDSSEDETEQIKED",binds
3,"Trf5 53-199 (yeast two-hybrid plasmid pAV744) (domain or fragment, UniProt P48561 53-199) AIDVEDDDTFGNLVLMENDKSDVDIPVIEEVTSSEDEQRAESSKRNNSLEDNQDFIAFSDSSEDETEQIKEDDDERSSFLLTDEHEVSKLTSQQSLNTESACNVEYPWIRNHCHSKQRRIADWLTSEIKDFVHYISPSKNEIKCRNR",binds
4,"Trf5 53-139 (yeast two-hybrid plasmid pAV767) (domain or fragment, UniProt P48561 53-139) AIDVEDDDTFGNLVLMENDKSDVDIPVIEEVTSSEDEQRAESSKRNNSLEDNQDFIAFSDSSEDETEQIKEDDDERSSFLLTDEHEV",binds
5,"Trf5 53-154 (yeast two-hybrid plasmid pAV764) (domain or fragment, UniProt P48561 53-154) AIDVEDDDTFGNLVLMENDKSDVDIPVIEEVTSSEDEQRAESSKRNNSLEDNQDFIAFSDSSEDETEQIKEDDDERSSFLLTDEHEVSKLTSQQSLNTESAC",binds
6,"Trf5 53-169 (yeast two-hybrid plasmid pAV763) (domain or fragment, UniProt P48561 53-169) AIDVEDDDTFGNLVLMENDKSDVDIPVIEEVTSSEDEQRAESSKRNNSLEDNQDFIAFSDSSEDETEQIKEDDDERSSFLLTDEHEVSKLTSQQSLNTESACNVEYPWIRNHCHSKQ",binds
7,"Trf5 53-184 (yeast two-hybrid plasmid pAV762) (domain or fragment, UniProt P48561 53-184) AIDVEDDDTFGNLVLMENDKSDVDIPVIEEVTSSEDEQRAESSKRNNSLEDNQDFIAFSDSSEDETEQIKEDDDERSSFLLTDEHEVSKLTSQQSLNTESACNVEYPWIRNHCHSKQRRIADWLTSEIKDFV",binds

# Now from value to binder:
row,binding,Binder
1,binds,"NNSLEDNQDFIAFSDSSEDE (peptide, UniProt P48561 98-117) [Trf5 98-117 (yeast two-hybrid construct)]"
2,binds,"Trf5 83-199 (yeast two-hybrid plasmid pAV760) (domain or fragment, UniProt P48561 83-199) VTSSEDEQRAESSKRNNSLEDNQDFIAFSDSSEDETEQIKEDDDERSSFLLTDEHEVSKLTSQQSLNTESACNVEYPWIRNHCHSKQRRIADWLTSEIKDFVHYISPSKNEIKCRNR"
3,no binding,"Trf5 118-199 (yeast two-hybrid plasmid pAV766) (domain or fragment, UniProt P48561 118-199) TEQIKEDDDERSSFLLTDEHEVSKLTSQQSLNTESACNVEYPWIRNHCHSKQRRIADWLTSEIKDFVHYISPSKNEIKCRNR"
4,binds,"Trf5 98-199 (yeast two-hybrid plasmid pAV761) (domain or fragment, UniProt P48561 98-199) NNSLEDNQDFIAFSDSSEDETEQIKEDDDERSSFLLTDEHEVSKLTSQQSLNTESACNVEYPWIRNHCHSKQRRIADWLTSEIKDFVHYISPSKNEIKCRNR"

# Reference: article PMC4330371, “Interaction between the RNA-dependent ATPase and poly(A) polymerase subunits of the TRAMP complex is mediated by short peptides and important for snoRNA processing” (Nucleic Acids Research, 2015)
